{"source": "paper PMC9537944", "about": "“eIF4G1 N-terminal intrinsically disordered domain is a multi-docking station for RNA, Pab1, Pub1, and self-assembly” (Frontiers in Molecular Biosciences, 2022)", "key": {"[1]": {"target": "T1, Pub1 RRM3 (Saccharomyces cerevisiae) (UniProt P32588)", "T1 sequence": "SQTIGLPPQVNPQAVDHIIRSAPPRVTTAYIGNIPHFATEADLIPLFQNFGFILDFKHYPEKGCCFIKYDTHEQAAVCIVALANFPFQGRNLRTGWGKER", "experiment": "NMR titration; 1H-15N HSQC of 15N-labelled Pub1 RRM3 titrated with eIF4G1 peptides, eIF4G1 constructs and mutants, or Pab1 RRM12; NMR buffer (25 mM potassium phosphate pH 6.5, 25 or 150 mM NaCl, 1 mM DTT, 10% D2O), 25°C; both purified"}, "[2]": {"target": "T1, Pub1 RRM3 (Saccharomyces cerevisiae)", "experiment": "NMR structure; eIF4G1 35-49 fused to the N-terminus of Pub1 RRM3 on one chain; distance restraints from a 2D NOESY (60 ms mixing time), Cyana; both purified"}, "[3]": {"target": "T2, eIF4G1_(1-249), N-terminal intrinsically disordered region of eIF4G1 (Saccharomyces cerevisiae) (UniProt P39935)", "T2 sequence": "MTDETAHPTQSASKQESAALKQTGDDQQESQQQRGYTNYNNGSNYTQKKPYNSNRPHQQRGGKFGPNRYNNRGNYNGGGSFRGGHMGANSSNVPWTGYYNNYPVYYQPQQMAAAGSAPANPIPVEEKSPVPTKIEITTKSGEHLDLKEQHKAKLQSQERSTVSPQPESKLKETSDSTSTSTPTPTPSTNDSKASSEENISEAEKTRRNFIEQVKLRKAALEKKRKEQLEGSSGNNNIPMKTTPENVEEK", "experiment": "NMR titration; 1H-15N HSQC of 15N-eIF4G1 1-249 with unlabeled Pub1 RRM3 or Pab1 RRM12; signal intensity ratios; NMR buffer (25 mM potassium phosphate pH 6.5, 25 or 150 mM NaCl, 1 mM DTT, 10% D2O), 25°C; both purified"}}, "note": "Results are given in words; binding and its absence hold for the method and conditions named. Some entries that bind do so weakly or less than the wild type. Tags and fused reporters may be left off the sequences shown."}
{"binder": "eIF4G1_(1-348) (domain or fragment, UniProt P39935 1-348) MTDETAHPTQSASKQESAALKQTGDDQQESQQQRGYTNYNNGSNYTQKKPYNSNRPHQQRGGKFGPNRYNNRGNYNGGGSFRGGHMGANSSNVPWTGYYNNYPVYYQPQQMAAAGSAPANPIPVEEKSPVPTKIEITTKSGEHLDLKEQHKAKLQSQERSTVSPQPESKLKETSDSTSTSTPTPTPSTNDSKASSEENISEAEKTRRNFIEQVKLRKAALEKKRKEQLEGSSGNNNIPMKTTPENVEEKGSDKPEVTEKTKPAEEKSAEPEVKQETPAEEGEQGEKGQIKEESTPKVLTFAERLKLKKQQKEREEKTEGKENKEVPVQEETKSAIESAPVPPSEQVKE", "values": [{"measurement": "binding", "setting": "[1]", "value": "binds weakly"}]}
{"binder": "eIF4G1_(1-402) (domain or fragment, UniProt P39935 1-402) MTDETAHPTQSASKQESAALKQTGDDQQESQQQRGYTNYNNGSNYTQKKPYNSNRPHQQRGGKFGPNRYNNRGNYNGGGSFRGGHMGANSSNVPWTGYYNNYPVYYQPQQMAAAGSAPANPIPVEEKSPVPTKIEITTKSGEHLDLKEQHKAKLQSQERSTVSPQPESKLKETSDSTSTSTPTPTPSTNDSKASSEENISEAEKTRRNFIEQVKLRKAALEKKRKEQLEGSSGNNNIPMKTTPENVEEKGSDKPEVTEKTKPAEEKSAEPEVKQETPAEEGEQGEKGQIKEESTPKVLTFAERLKLKKQQKEREEKTEGKENKEVPVQEETKSAIESAPVPPSEQVKEETEVAETEQSNIDESATTPAIPTKSDEAEAEVEAEAGDAGTKIGLEAEIETTTD", "values": [{"measurement": "binding", "setting": "[1]", "value": "binds weakly"}]}
{"binder": "eIF4G1_(1-184) (domain or fragment, UniProt P39935 1-184) MTDETAHPTQSASKQESAALKQTGDDQQESQQQRGYTNYNNGSNYTQKKPYNSNRPHQQRGGKFGPNRYNNRGNYNGGGSFRGGHMGANSSNVPWTGYYNNYPVYYQPQQMAAAGSAPANPIPVEEKSPVPTKIEITTKSGEHLDLKEQHKAKLQSQERSTVSPQPESKLKETSDSTSTSTPTP", "values": [{"measurement": "binding", "setting": "[1]", "value": "binds"}]}
{"binder": "eIF4G1_(1-184) W95A (domain or fragment, UniProt P39935 1-184) MTDETAHPTQSASKQESAALKQTGDDQQESQQQRGYTNYNNGSNYTQKKPYNSNRPHQQRGGKFGPNRYNNRGNYNGGGSFRGGHMGANSSNVPATGYYNNYPVYYQPQQMAAAGSAPANPIPVEEKSPVPTKIEITTKSGEHLDLKEQHKAKLQSQERSTVSPQPESKLKETSDSTSTSTPTP", "values": [{"measurement": "binding", "setting": "[1]", "value": "binds weakly"}]}
{"binder": "eIF4G1_(1-184) Y98A/Y99A (domain or fragment, UniProt P39935 1-184) MTDETAHPTQSASKQESAALKQTGDDQQESQQQRGYTNYNNGSNYTQKKPYNSNRPHQQRGGKFGPNRYNNRGNYNGGGSFRGGHMGANSSNVPWTGAANNYPVYYQPQQMAAAGSAPANPIPVEEKSPVPTKIEITTKSGEHLDLKEQHKAKLQSQERSTVSPQPESKLKETSDSTSTSTPTP", "values": [{"measurement": "binding", "setting": "[1]", "value": "binds weakly"}]}
{"binder": "eIF4G1_(1-184) Y105A/Y106A (domain or fragment, UniProt P39935 1-184) MTDETAHPTQSASKQESAALKQTGDDQQESQQQRGYTNYNNGSNYTQKKPYNSNRPHQQRGGKFGPNRYNNRGNYNGGGSFRGGHMGANSSNVPWTGYYNNYPVAAQPQQMAAAGSAPANPIPVEEKSPVPTKIEITTKSGEHLDLKEQHKAKLQSQERSTVSPQPESKLKETSDSTSTSTPTP", "values": [{"measurement": "binding", "setting": "[1]", "value": "binds weakly"}]}
{"binder": "GYTNYNNGSNYTQKK (peptide, UniProt P39935 35-49)", "note": "[eIF4G1_(35-49)]", "values": [{"measurement": "binding", "setting": "[2]", "value": "binds weakly"}]}
{"binder": "Pub1 RRM3 (domain or fragment, UniProt P32588 315-414) SQTIGLPPQVNPQAVDHIIRSAPPRVTTAYIGNIPHFATEADLIPLFQNFGFILDFKHYPEKGCCFIKYDTHEQAAVCIVALANFPFQGRNLRTGWGKER", "values": [{"measurement": "binding", "setting": "[3]", "value": "binds weakly"}]}
{"binder": "eIF4G1_(1-249), N-terminal intrinsically disordered region of eIF4G1 (domain or fragment, Saccharomyces cerevisiae, UniProt P39935 1-249, looked up, 15N-labelled where it was the observed partner; Minor isoaspartate forms (12%-14%) are reported at positions 41 and 76; In the intermolecular PRE experiment the second copy was the Q109C mutant carrying a TEMPO spin label; also called eIF4G1 IDR; not shown: thioredoxin A, N-terminal, cleaved; 6xHis, internal (between thioredoxin A and the TEV site), cleaved) MTDETAHPTQSASKQESAALKQTGDDQQESQQQRGYTNYNNGSNYTQKKPYNSNRPHQQRGGKFGPNRYNNRGNYNGGGSFRGGHMGANSSNVPWTGYYNNYPVYYQPQQMAAAGSAPANPIPVEEKSPVPTKIEITTKSGEHLDLKEQHKAKLQSQERSTVSPQPESKLKETSDSTSTSTPTPTPSTNDSKASSEENISEAEKTRRNFIEQVKLRKAALEKKRKEQLEGSSGNNNIPMKTTPENVEEK", "values": [{"measurement": "binding", "setting": "[1]", "value": "binds weakly"}]}
{"binder": "eIF4G1_(1-82) (domain or fragment, UniProt P39935 1-82) MTDETAHPTQSASKQESAALKQTGDDQQESQQQRGYTNYNNGSNYTQKKPYNSNRPHQQRGGKFGPNRYNNRGNYNGGGSFR", "values": [{"measurement": "binding", "setting": "[1]", "value": "binds weakly"}]}
{"binder": "eIF4G1_(1-305) (domain or fragment, UniProt P39935 1-305) MTDETAHPTQSASKQESAALKQTGDDQQESQQQRGYTNYNNGSNYTQKKPYNSNRPHQQRGGKFGPNRYNNRGNYNGGGSFRGGHMGANSSNVPWTGYYNNYPVYYQPQQMAAAGSAPANPIPVEEKSPVPTKIEITTKSGEHLDLKEQHKAKLQSQERSTVSPQPESKLKETSDSTSTSTPTPTPSTNDSKASSEENISEAEKTRRNFIEQVKLRKAALEKKRKEQLEGSSGNNNIPMKTTPENVEEKGSDKPEVTEKTKPAEEKSAEPEVKQETPAEEGEQGEKGQIKEESTPKVLTFAERLK", "values": [{"measurement": "binding", "setting": "[1]", "value": "binds weakly"}]}
{"binder": "STNDSKASSEENISEAEKTRRNFIEQVKLRKAALEKKRKEQLEGSSGN (peptide, UniProt P39935 187-234)", "note": "[eIF4G1 BOX3 peptide (eIF4G1_(187-234))]", "values": [{"measurement": "binding", "setting": "[1]", "value": "no binding"}]}
